Source: PubChem BioAssay AID2675 (National Center for Advancing Translational Sciences (NCATS), 2010)
Out of some 280,000 compounds screened, about 100 (0.036%) were called active. Inconclusive results, whose numbers are uncertain, are shown with a selection of clear calls. Calls come from the whole dose curve; as a rule, active = well fitted inhibition curve with a large enough effect in the signal ratio, with a control signal flat (not every such curve was filed as active); inconclusive = small, poorly fitted or top-dose-only effect, or effect the other way, or a change in a side signal; inactive = no such curve, though single readings can be large or run the other way; the % refers to the signal ratio. Where the call is inconclusive, the potency comes from a doubtful curve fit. “Side channel” marks fits to a control or component signal instead of the main read-out.

biological target: Muscleblind-like protein 1 (Homo sapiens) (UniProt Q9NR56); assay: qHTS Assay for Inhibitors of MBNL1-poly(CUG) RNA binding; conditions: TR-FRET MBNL1-His/biotin-(CUG)12 binding, 665/545 ratio; activity change, negative = inhibition: at 57.5 µM (top of the series)
Chain of UniProt Q9NR56 (Q9NR56 whole entry, looked up): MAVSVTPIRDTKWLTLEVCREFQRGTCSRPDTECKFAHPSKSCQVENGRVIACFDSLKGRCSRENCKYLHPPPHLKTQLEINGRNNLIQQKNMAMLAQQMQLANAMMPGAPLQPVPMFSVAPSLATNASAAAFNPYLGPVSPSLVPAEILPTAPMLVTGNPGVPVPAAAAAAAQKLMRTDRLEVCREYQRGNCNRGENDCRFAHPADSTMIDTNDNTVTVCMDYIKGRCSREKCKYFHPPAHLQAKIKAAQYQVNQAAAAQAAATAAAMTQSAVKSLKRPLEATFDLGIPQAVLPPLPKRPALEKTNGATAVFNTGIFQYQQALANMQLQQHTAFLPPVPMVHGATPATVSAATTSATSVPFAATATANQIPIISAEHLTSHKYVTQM
In short: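 TR-FRET readout: Ex 340 nm, 665/545 nm emission ratio, normalized to buffer-only (basal) and MBNL1-(CUG)12 controls. Complex of MBNL1-His with Biotin-(CUG)12, compounds 92 nM–58 uM, incubated 60 min at room temperature.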
% is set by controls: 0 for no effect and ±100 for the full control effect; potency is the fitted concentration of half-maximal effect; tags give direction and shape of the fitted curve or compound fluorescence and quenching.

Row | Compound | Potency | activity change, negative = inhibition
1 | Cc1nc([N+](=O)[O-])cn1-c1ccc(N)cc1 | inconclusive: 39.8 µM [quencher, side channel, partial curve, poor fit] | 
2 | Cc1ccc(NC(=O)NCC2CCN(Cc3cc(C)ccc3Cl)CC2)c(C)c1 |  | inactive: 5.52%
3 | O=C1C=C(Nc2ccccc2)c2ccccc2C1=O | inconclusive: 3.16 µM [quencher, side channel, partial curve, poor fit] | 
4 | COc1ccc(Nc2nc(N)nc(CN3CCN(c4ccc(F)cc4)CC3)n2)cc1 | inconclusive: 31.6 µM [fluorescent, side channel, single point] | 
5 | O=C(O)CCSc1nc2ccccc2c(=O)[nH]1 |  | inactive: -4.98%
6 | O=C(C1CCN(c2ncnc3c2nc2n3CCCCC2)CC1)N1CCN(c2ccccc2F)CC1 |  | inactive: -7.86%
7 | COC(=O)NCN1C(=O)C2C3C=CC(C3)C2C1=O (stereo unspecified) | inconclusive: 25.1 µM [fluorescent, side channel, single point] | 
8 | COc1ccc([N+](=O)[O-])cc1NC(=O)C1(c2ccc(OC)c(OC)c2)CCOCC1 | inconclusive: 25.1 µM [quencher, side channel, partial curve] | 
9 | COc1ccccc1NC(=O)C(=O)N/N=C/c1ccc([N+](=O)[O-])s1 | inconclusive: 2.82 µM [quencher, side channel, full curve] | 
10 | COCCSc1ccccc1C(=O)Nc1ccc([N+](=O)[O-])cc1OC | inconclusive: 7.94 µM [quencher, side channel, partial curve] | 
11 | COCCn1c(-c2ccc(OC)cc2)cnc1SCC(=O)Nc1ccc(OC)cc1OC | inconclusive: 25.1 µM [fluorescent, side channel, partial curve] | 
12 | CN1CCN(S(=O)(=O)c2cc([N+](=O)[O-])ccc2N2CCCCCC2)CC1 | inconclusive: 14.1 µM [quencher, partial curve] | 
13 | COc1ccc(N/N=C(\C#N)C(=N)N2CCCCC2)cc1 | inconclusive: 25.1 µM [quencher, side channel, single point] | 
14 | CCCc1nnc(NC(=O)C(C)N2C(=O)C3C4C=CC(C4)C3C2=O)s1 (stereo unspecified) | inconclusive: 0.1 µM [quencher, side channel, full curve, poor fit] | 
15 | Cc1ccc2[nH]cc(CCNC(=O)c3ccc([N+](=O)[O-])cc3)c2c1 | inconclusive: 12.6 µM [quencher, side channel, partial curve] | 
16 | CC(C)COc1ccc(C(=O)N/C(=C/c2cccc([N+](=O)[O-])c2)C(=O)O)cc1 | inconclusive: 39.8 µM [quencher, side channel, single point] | 
17 | Cc1ccc2oc(=O)cc(/C=C/c3ccccc3)c2c1 | inconclusive: 22.4 µM [quencher, single point] | 
18 | O=C(OCc1ccc(C(=O)c2ccccc2)cc1)c1cccc(-c2nnc(-c3ccccc3)o2)c1 |  | inactive: -8.83%
19 | COc1ccc(N2CCN(c3ccc(C(N)=O)cc3[N+](=O)[O-])CC2)cc1 | inconclusive: 12.6 µM [quencher, side channel, partial curve] | 
20 | O=C(c1ccc2c(c1)C(=O)N(Cc1ccco1)C2=O)N1CCOCC1 | inconclusive: 17.8 µM [quencher, side channel, single point] | 
21 | COc1ccc(Nc2cc(C)nc3c(C)cccc23)cc1OC | inconclusive: 39.8 µM [quencher, side channel, single point] | 

Row | Compound | Potency | activity change, negative = inhibition
22 | COc1ccc2nc(-c3ccco3)c(-c3ccco3)nc2c1 | inconclusive: 14.1 µM [quencher, side channel, partial curve] | 
23 | Cc1ccc(C)c(C(=O)COC(=O)c2cc([N+](=O)[O-])ccc2NCCO)c1 | inconclusive: 28.2 µM [activator, partial curve] | 
24 | CCCC/C(C)=N\NC(=O)CNS(=O)(=O)c1ccc([N+](=O)[O-])cc1 | inconclusive: 15.8 µM [quencher, side channel, partial curve] | 
25 | NS(=O)(=O)c1ccc(N/C=C\C(=O)c2ccncc2)cc1 | inconclusive: 15.8 µM [quencher, side channel, partial curve] | 
26 | CCCCn1c(-c2sccc2C)n[nH]c1=S |  | inactive: -1.02%
27 | O=C(O)c1ccc(NS(=O)(=O)c2ccc3c(c2)OCCO3)cc1 |  | inactive: 2.63%
28 | Nc1nn2cc(-c3ccccc3)nc2c2ccccc12 |  | inactive: -3.65%
29 | Cc1ccc(C(=O)NCc2ccco2)cc1[N+](=O)[O-] | inconclusive: 39.8 µM [quencher, side channel, single point] | 
30 | CN1c2ccc(C=O)c3c(C=O)ccc(c23)N(C)C1(C)C | inconclusive: 12.6 µM [quencher, side channel, partial curve] | 
31 | CC1(C)CC(=O)C(N=Nc2ccc3ncsc3c2)=C(O)C1 | inconclusive: 7.94 µM [quencher, side channel, partial curve] | 
32 | COc1ccccc1C1CCN(c2cc(O)ccc2[N+](=O)[O-])CC1 | inconclusive: 8.91 µM [quencher, side channel, partial curve] | 
33 | Cc1c(OC(C)C(=O)NCC2CCC(C(=O)O)CC2)ccc2c(-c3ccccc3)cc(=O)oc12 (stereo unspecified) | inconclusive: 20 µM [quencher, side channel, partial curve] | 
34 | Cc1c(N=C2C(=O)Nc3ccccc32)c(=O)n(-c2ccccc2)n1C | inconclusive: 15.8 µM [quencher, side channel, partial curve] | 
35 | Cc1c(NC(=O)COc2cccc3c2OC(C)(C)C3)c(=O)n(-c2ccccc2)n1C |  | inactive: -8.78%
36 | O=C(N/N=C/C=C/c1ccccc1[N+](=O)[O-])c1cc(-c2cccnc2)nc2ccccc12 | inconclusive: 12.6 µM [quencher, side channel, partial curve] | 
37 | COc1cc(NCc2ccccc2O)c2ncccc2c1 | inconclusive: 25.1 µM [quencher, side channel, single point] | 
38 | O=[N+]([O-])c1ccc(/C=N/n2c(-c3ccccc3)n[nH]c2=S)cc1 | inconclusive: 12.6 µM [quencher, side channel, partial curve] | 
39 | CC(C)Oc1ccc(C2CC(=O)N(Nc3ccc([N+](=O)[O-])cc3[N+](=O)[O-])C2=O)cc1 (stereo unspecified) | inconclusive: 14.1 µM [quencher, side channel, partial curve] | 
40 | CCCC1=NN2C(=N)/C(=C\c3cc(C)n(Cc4ccccc4)c3C)C(=O)N=C2S1 |  | inactive: 8.42%
41 | Cc1nn(C)cc1NC(=O)c1nn(C)cc1[N+](=O)[O-] | inconclusive: 17.8 µM [quencher, side channel, partial curve] | 
42 | COC(=O)C1=C(C)NC(C)=C(C(=O)OC)C1c1ccc(NC(C)=O)cc1 |  | inactive: -4.9%

Row | Compound | Potency | activity change, negative = inhibition
43 | CCn1c(=O)c(=O)[nH]c2cc(C(=O)N3CCN(Cc4ccc5c(c4)OCO5)CC3)ccc21 |  | inactive: 1.3%
44 | O=C1/C(=C/c2ccc(F)cc2)SC(=S)N1CC(=O)N1CCCCC1c1cccnc1 (stereo unspecified) | inconclusive: 20 µM [quencher, side channel, partial curve] | 
45 | COc1ccc(/C=C/C(=O)ONC2=NCCCCC2)cc1OC | inconclusive: 25.1 µM [quencher, side channel, single point] | 
46 | Cn1c(C(=O)N2COCC2(C)C)cc2c(=O)n3ccccc3nc21 | inconclusive: 12.6 µM [quencher, side channel, partial curve] | 
47 | N#CCCN1CCN(Cc2cc(-c3ccccc3)ccc2O)CC1 |  | inactive: -7.28%
48 | O=C(N/C(=C/c1cccc([N+](=O)[O-])c1)C(=O)N1CCCCC1)c1ccco1 | inconclusive: 20 µM [quencher, side channel, partial curve] | 
49 | O=C(COc1ccc([N+](=O)[O-])cc1)N1CCc2ccccc2C1 | inconclusive: 17.8 µM [quencher, side channel, partial curve] | 
50 | Cc1cccc(N=C2NC(=O)/C(=C/c3cccnc3)S2)c1C |  | inactive: -0.675%
51 | Cc1cc(C(C)(C)C)oc1C(=O)N(CC(=O)NC1CCCC1)c1c(C)cccc1C | inconclusive: 22.4 µM [quencher, side channel, single point] | 
52 | CCn1c(CCn2c3ccccc3c3ccccc32)n[nH]c1=S | inconclusive: 31.6 µM [fluorescent, side channel, single point] | 
53 | COc1ccc(N(CC(=O)Nc2c(C)n(C)n(-c3ccccc3)c2=O)S(=O)(=O)c2ccc(C)cc2)cc1OC |  | inactive: -0.271%
54 | COc1cc2ccccc2cc1C(=O)N/N=C/c1cccnc1 | inconclusive: 12.6 µM [quencher, partial curve] | 
55 | CC12Cc3ccc4ccccc4c3C=C1C[N+](C)(C)C2 (stereo unspecified) | inconclusive: 11.2 µM [quencher, side channel, partial curve] | 
56 | O=c1oc(-c2ccccc2F)nc2c1cnn2-c1ccccc1 |  | inactive: -8.95%
57 | Cc1ccc2ncnc(NCCCCCC(=O)O)c2c1 | inconclusive: 10 µM [quencher, side channel, partial curve] | 
58 | Cc1nc(N(C)C)ncc1C(=O)O | inconclusive: 39.8 µM [inhibitor, single point] | 
59 | CCC(=O)Nc1c(-c2ccc(C)cc2)c(=O)c2ccccc2n1C |  | inactive: 2.27%
60 | COc1cc(C(=O)NCCCc2nc3ccccc3n2Cc2cc(C)ccc2C)cc(OC)c1OC | inconclusive: 0.708 µM [inhibitor, full curve, poor fit] | 
61 | O=C1CCCC2=C1C(c1cccs1)Nc1ccc3ncccc3c12 (stereo unspecified) | inconclusive: 20 µM [quencher, single point] | 
